Test results: US20150183864A1 (KOREA ADVANCED INSTITUTE OF SCIENCE AND TECHNOLOGY KAIST, published 2015)

Columns and labels:
[1] = target: T1, TNF-α (R&D Cat#210-TA/CF) (UniProt P01375 partial chain); experiment: SPR, BIAcore 3000, TNF-α immobilized on CM5 chip
T1 construct: Bought recombinant protein; also called TNF-alpha; tumor necrosis factor alpha

[2] = target: T2, VEGF-A165 (produced from CHO cell) (UniProt P15692-4 27-191); experiment: SPR, BIAcore 3000, VEGF-A immobilized on CM5 chip
T2 sequence (looked up): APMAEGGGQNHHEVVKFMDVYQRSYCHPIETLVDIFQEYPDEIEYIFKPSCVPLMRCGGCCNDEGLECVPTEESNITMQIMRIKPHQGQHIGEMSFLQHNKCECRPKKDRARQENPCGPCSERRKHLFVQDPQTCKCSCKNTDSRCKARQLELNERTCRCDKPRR

T1 sequence (P01375 77-233 limits assumed): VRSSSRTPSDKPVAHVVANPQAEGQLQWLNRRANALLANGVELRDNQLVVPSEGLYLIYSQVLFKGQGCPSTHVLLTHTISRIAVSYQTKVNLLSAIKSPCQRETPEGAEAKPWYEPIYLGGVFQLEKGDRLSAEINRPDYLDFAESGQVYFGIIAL

Kd [1]: 0.641 nM
Kd [2]: 0.00654 nM
B1: Valpha recombinant protein (Valpha FV#1: Mbd-TNFR2, Ig2 of VEGFR1 and human IgG Fc portion in order) (Fc fusion)
chain: LPAQVAFTPYAPEPGSTCRLREYYDQTAQMCCSKCSPGQHAKVFCTKTSDTVCDSCEDSTYTQLWNWVPECLSCGSRCSSDQVETQACTREQNRICTCRPGWYCALSKQEGCRLCAPLRKCRPGFGVARPGTETSDVVCKPCAPGTFSNTTSSTDICRPHQICNVVAIPGNASMDAVCTSTSPTRSMAPGAVHLPQPVSTRSQHTQPTPEPSTAPSTSFLLPMGPSPPAEGSTGDGRPFVEMYSEIPEIIHMTEGRELVIPCRVTSPNITVTLKKFPLDTLIPDGKRIIWDSRKGFIISNATYKEIGLLTCEATVNGHLYKTNYLTHRQLE[human IgG1 Fc not shown]
notes: Produced in CHO cells; also called double anti-inflammation-angiogenesis protein targeting both VEGF-A and TNF-alpha
